Laboratory results published in the supplement of paper PMC4967469.
IC50 is the fitted dose that halves viability relative to control wells, and lower means more sensitive; a limit (>, <) means that the fit lies beyond the doses tested. AUC, from the same fit, is the share of area under the viability curve across the 256-fold dose range; values near 1 show little effect. For part of these data: The top dose, if marked as inferred, was calculated from the reported fits.

How the values were obtained:
Assay in all cases: Viability of human cancer cell lines after 72 h of drug (GDSC screen)
STF-62247 = compound: Cc1cccc(Nc2nc(-c3ccncc3)cs2)c1 [STF-62247]; conditions: top dose 10.24 µM; top dose inferred
Description: (§1)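 Human cancer cell lines in 384-well plates, medium with 10% serum, drug for 72 h over a 256-fold dose range (nine 2-fold or five 4-fold steps up to the top dose). Adherent lines were fixed and stained with the nucleic acid dye Syto60, suspension lines read with resazurin; signal relative to control wells, capped at 0 and 100%. One two-parameter sigmoid per drug and line, fitted in a mixed model over all curves with the slope shared within a line.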

CP724714 = compound: COCC(=O)NC/C=C/c1ccc2ncnc(Nc3ccc(Oc4ccc(C)nc4)c(C)c3)c2c1 [CP724714]; conditions: top dose 10.24 µM; top dose inferred
Description: as §1

Obatoclax mesylate = compound: COC1=CC(c2cc3ccccc3[nH]2)=N/C1=C\c1[nH]c(C)cc1C [Obatoclax mesylate]; conditions: top dose 16 µM
Description: as §1

CX-5461 = compound: Cc1cnc(CNC(=O)c2c(=O)c3ccc(N4CCCN(C)CC4)nc3n3c2sc2ccccc23)cn1 [CX-5461]; conditions: top dose 10.24 µM; top dose inferred
Description: as §1

Cell Line | AUC (STF-62247) | IC50 (STF-62247) [µM] | AUC (CP724714) | IC50 (CP724714) [µM] | AUC (Obatoclax mesylate) | IC50 (Obatoclax mesylate) [µM] | AUC (CX-5461) | IC50 (CX-5461) [µM]
NCI-H1563 (lung adenocarcinoma, adherent) | 0.982 | > 10.2 | 0.949 | > 10.2 | 0.739 | 5.57 | 0.974 | > 10.2
NCI-H1568 (lung adenocarcinoma, adherent) | 0.981 | > 10.2 | 0.968 | > 10.2 | 0.299 | 0.233 | 0.982 | > 10.2
NCI-H1573 (lung adenocarcinoma, adherent) | 0.987 | > 10.2 | 0.989 | > 10.2 | 0.843 | 10.8 | 0.99 | > 10.2
NCI-H1623 (lung adenocarcinoma, adherent) | 0.985 | > 10.2 | 0.976 | > 10.2 | 0.685 | 3.73 | 0.985 | > 10.2
NCI-H1651 (lung adenocarcinoma, adherent) | 0.987 | > 10.2 | 0.983 | > 10.2 | 0.413 | 0.565 | 0.985 | > 10.2
NCI-H1688 (small cell lung carcinoma, adherent) | 0.984 | > 10.2 | 0.952 | > 10.2 | 0.422 | 0.596 | 0.976 | > 10.2
NCI-H1693 (lung adenocarcinoma, adherent) | 0.969 | > 10.2 | 0.969 | > 10.2 | 0.548 | 1.46 | 0.977 | > 10.2
NCI-H1703 (lung adenocarcinoma, adherent) | 0.977 | > 10.2 | 0.95 | > 10.2 | 0.437 | 0.647 | 0.982 | > 10.2
NCI-H1734 (lung adenocarcinoma, adherent) | 0.983 | > 10.2 | 0.982 | > 10.2 | 0.413 | 0.563 | 0.902 | > 10.2
NCI-H1755 (lung adenocarcinoma, adherent) | 0.984 | > 10.2 | 0.863 | > 10.2 | 0.743 | 5.65 | 0.948 | > 10.2
NCI-H1781 (lung adenocarcinoma, adherent) | 0.989 | > 10.2 | 0.989 | > 10.2 | 0.655 | 2.69 | 0.986 | > 10.2
NCI-H1792 (lung adenocarcinoma, adherent) | 0.985 | > 10.2 | 0.989 | > 10.2 | 0.306 | 0.304 | 0.989 | > 10.2
NCI-H1793 (lung adenocarcinoma, adherent) | 0.976 | > 10.2 | 0.979 | > 10.2 | 0.842 | > 16 | 0.982 | > 10.2
NCI-H1915 (large cell lung carcinoma, adherent) | 0.98 | > 10.2 | 0.984 | > 10.2 | 0.472 | 0.837 | 0.843 | 7.46
NCI-H1944 (lung adenocarcinoma, adherent) | 0.979 | > 10.2 | 0.951 | > 10.2 | 0.492 | 0.947 | 0.896 | > 10.2
NCI-H1993 (lung adenocarcinoma, adherent) | 0.914 | > 10.2 | 0.94 | > 10.2 | 0.731 | 5.71 | 0.983 | > 10.2
NCI-H2009 (lung adenocarcinoma, adherent) | 0.986 | > 10.2 | 0.98 | > 10.2 | 0.339 |  | 0.979 | > 10.2
NCI-H2023 (lung adenocarcinoma, adherent) | 0.983 | > 10.2 | 0.979 | > 10.2 | 0.454 | 0.729 | 0.944 | > 10.2
NCI-H2029 (small cell lung carcinoma, adherent) | 0.992 | > 10.2 | 0.992 | > 10.2 | 0.846 | 10 | 0.969 | > 10.2
NCI-H2030 (lung adenocarcinoma, adherent) | 0.963 | > 10.2 | 0.936 | > 10.2 | 0.305 | 0.261 | 0.919 | > 10.2
NCI-H2052 (mesothelioma, adherent) | 0.973 | > 10.2 | 0.969 | > 10.2 | 0.446 | 0.684 | 0.972 | > 10.2
NCI-H2085 (lung adenocarcinoma, adherent) | 0.932 | > 10.2 | 0.966 | > 10.2 | 0.163 | 0.0837 | 0.849 | 8.7
NCI-H2087 (lung adenocarcinoma, semi-adherent) | 0.977 | > 10.2 | 0.978 | > 10.2 | 0.22 | 0.14 | 0.84 | 7.84
NCI-H2110 (non-small cell lung carcinoma, adherent) | 0.986 | > 10.2 | 0.969 | > 10.2 | 0.439 | 0.68 | 0.666 | 1.87
NCI-H2122 (lung adenocarcinoma, adherent) | 0.989 | > 10.2 | 0.988 | > 10.2 | 0.251 | 0.204 | 0.989 | > 10.2
NCI-H2170 (lung squamous cell carcinoma, adherent) | 0.984 | > 10.2 | 0.952 | > 10.2 | 0.259 | 0.197 | 0.952 | > 10.2
NCI-H2172 (non-small cell lung carcinoma, adherent) | 0.981 | > 10.2 | 0.959 | > 10.2 | 0.591 | 1.94 | 0.97 | > 10.2
NCI-H2228 (lung adenocarcinoma, adherent) | 0.956 | > 10.2 | 0.976 | > 10.2 | 0.458 | 0.727 | 0.907 | > 10.2
NCI-H2291 (lung adenocarcinoma, adherent) | 0.98 | > 10.2 | 0.981 | > 10.2 | 0.965 | > 16 | 0.984 | > 10.2
